Data as given in PubChem BioAssay (NCI).
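Grown in 96-well plates, cells were treated for 48 hours with each compound at five concentrations. Insufficient inhibition: endpoint recorded as highest concentration tested. GI50 marks 50% less growth. At the TGI there is no net growth.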

test system: NCI-H322M lung; test: DTP human tumour cell line panel, 48 h

| SMILES | GI50 [µM] | TGI [µM] |
| --- | --- | --- |
| CCCCCCCCC/C(=N\NC(=O)c1ccncc1)c1ccc(O)c(O)c1O | 0.105 | > 50.7 |
| CCOC(=O)C(N=C(c1ccccc1)c1ccccc1)N(C(=O)OC(C)(C)C)C(=O)OC(C)(C)C (centres undefined) |  | > 100 |
| O=C1/C(=C/c2ccco2)N=C2Sc3c(nc[nH]c3=O)N12 |  | > 100 |
| N#CCCCCCOCCOCCOCCOCCOCCCCCC#N |  | > 100 |
| CCSc1cc2c(cc1O)CC[C@@H]1[C@@H]2CC[C@]2(C)[C@@H](O)CC[C@@H]12 |  | 35 |
| COc1cc2c(cc1OCCCOS(C)(=O)=O)N=C[C@@H]1CCCN1C2=O |  | > 100 |
| CCCCCCn1c(-c2ccc(C(=O)O/N=C(\N)c3ccc4ccccc4c3)cc2)nc(-c2ccccc2)c1-c1ccccc1 | > 100 | > 100 |
| CCOC(=O)C1(C(=O)OCC)C[C@@H](C)[C@@H](O)C1 |  | > 100 |
| CC(=O)O[C@@H]1C(=O)N(c2ccccc2)[C@@H]1c1cc2ccccc2c2ccccc12 |  | > 100 |
| CN(C)CCNC(=O)c1cccc2c(NC(CS)C(=O)O)c3ccccc3[n+](C)c12 (centres undefined) |  | > 100 |
| NC(=O)/C(=N\NC(=O)C[n+]1ccccc1)C1NC(=O)NC1=O (centres undefined) |  | > 100 |
| CCOC(=O)c1cc2c3c(c(C(C)=O)c(O)c2[nH]1)N(C(C)=O)CC3 |  | > 100 |
| COc1cc2cc(C(=O)Nc3cc4n(n3)-c3ccccc3C4)[nH]c2c(OC)c1OC |  | 15.4 |
| C(=N\Nc1ccccc1)/c1nc2ccccc2nc1/C=N/Nc1ccccc1 |  | > 60.5 |
| O=C(CCCN1CCC(Nc2ccccc2)(c2nnnn2C2CCCCC2)CC1)c1ccc(F)cc1 |  | 13.7 |
| O=C(CC(C(=O)c1cccs1)c1ccsc1)c1ccccc1 (centres undefined) |  | > 100 |
| Cc1cc(O)cc(C)c1/C=C/c1cncc(C(N)=O)c1 | 8.63 | > 25 |
| O=C(O)c1cc(=O)c2c(OCC(O)COc3cccc4oc(C(=O)O)cc(=O)c34)cccc2o1 |  | > 100 |
| CC(Oc1ccccc1Cl)C(=O)NN1C(=O)CC(=O)NC1=S (centres undefined) |  | > 100 |
| O=C(O)c1cc2c(cc1CC(Cc1ccc3c(c1)CCCC3)C(=O)O)CCCC2 (centres undefined) |  | > 100 |
| C#C/C=C\CCCCCCCCCCCCCC/C=C\CCCCC#CC(O)C#CCCCC/C=C\CCCCCC/C=C/C(O)C#C (centres undefined) |  | > 75 |
| CCOP12(OCC)NC(=O)OC1(C(F)(F)F)c1ccccc1O2 (centres undefined) |  | > 100 |
| C[C@]12CC[C@H]3[C@@H](CC=C4C[C@@H](O)CC[C@@]43C)[C@@H]1C/C(=C/c1ccccc1)[C@@H]2O |  | > 59.3 |
| CCOC(=O)C(C(=O)OCC)c1ccc([N+](=O)[O-])o1 |  | > 100 |
| COc1cccc(/C=N/NC(=O)c2ccccc2N2CCCC2)c1O | 4.67 | > 100 |

| SMILES | GI50 [µM] | TGI [µM] |
| --- | --- | --- |
| COc1cc(C(=O)N2CCN(c3ccccc3)CC2)c2ccccc2n1 | 0.284 | > 100 |
| N#Cc1ccc(N2CCOCC2)cc1 |  | > 100 |
| COc1ccc(C2=C(N)c3c(Cl)cccc3C2=O)cc1 |  | > 100 |
| Clc1ccc(C(Cc2cccc(Cl)c2)c2c(Cl)nc(N3CCNCC3)nc2Cl)cc1 (centres undefined) |  | 30.5 |
| CCOC(=O)Cn1c(=O)c2nc(SC)sc2n(-c2ccccc2)c1=S |  | 48.3 |
| COc1ccc2c(c1)oc(=O)c1cc(OC)ccc12 | > 100 | > 100 |
| CCOC(=O)CCSc1nc2ccc(I)cc2c(=O)n1Cc1ccccc1 |  | > 100 |
| Cc1ccc(C(=O)Cn2c(C(=O)/C=C/c3cccs3)nc3ccccc32)cc1 |  | > 100 |
| COC(=O)C1=C(OC(=O)c2ccccc2)C(C(=O)OC)[C@@]2(O)[C@@H](C(=O)OC)[C@H](C)C[C@@H]1[C@@H]2C(=O)OC (some centres undefined) |  | 97.1 |
| COc1cc(O)c2c(c1)O[C@@H]1OCC[C@H]21 |  | > 100 |
| CCOC(=O)Nc1nc2ccc(Br)cc2s1 | > 50 | > 50 |
| O=C(O)CCc1nc2ccccc2[nH]1 |  | > 100 |
| O=C(Nc1cccc(C(F)(F)F)c1)C(=O)C1NC(=S)NC1=O (centres undefined) |  | > 100 |
| COc1ccc2c(O)c(/C=C3\N=Nc4ccccc43)oc2c1C[C@@H]1CCNC[C@H]1F | 12.7 | 27 |
| CCOC(=O)NC/C=C/COC1CCCCO1 (centres undefined) |  | > 100 |
| O=C(/C(=C/c1ccc([N+](=O)[O-])cc1)SCc1ccc(Cl)cc1)c1ccc(F)cc1 | 25.9 | > 100 |
| CNC(=O)NCCN1CC2CCC(CC2)C1 |  | > 10 |
| C[C@@H]1CCC([C@@H](C)[C@H]2CC[C@H]3[C@@H]4CC[C@H]5C[C@@H](O)CC[C@]5(C)[C@H]4CC[C@]23C)=NC1 |  | > 100 |
| Cc1nc(-c2nc(-c3ccc(OC(F)(F)F)cc3)no2)nn1Cc1cccc(N2CCC(S(C)(=O)=O)CC2)c1 | > 100 | > 100 |
| Cc1ccc(-c2n[nH]c(=O)n2NC(=O)c2ccccc2C(=O)O)cc1 |  | > 100 |
| COC(=O)C(C)(C)[C@@H]1OC(=O)N(S(=O)(=O)c2c(C)cc(C)cc2C)[C@H]1C(C)C |  | > 100 |
| O=C(O)C(C(=O)O)P(=S)(S)c1ccccc1 (centres undefined) |  | > 100 |
| CCCn1cc2c(SC)nc(SC)nc2n1 |  | > 100 |
| CC1=NNC(=O)C1C1CC(c2c[nH]c3ccccc23)=NN(C(N)=O)C1=O (centres undefined) |  | > 100 |
